# Assay results published in PubChem BioAssay AID2546 (National Center for Advancing Translational Sciences (NCATS), 2010).
# In all, about 310,000 compounds went through this assay and about 11,000 (3.5%) were called active. Inconclusive means that the source gave no clear call. Such entries were picked first, then a sample of the others. Calls come from the whole dose curve; as a rule, active = well fitted inhibition curve with a large enough effect; inconclusive = small, poorly fitted or top-dose-only effect, or effect the other way; inactive = flat fitted curve, though single readings scatter. No potency is given beside an inconclusive call; the fits are too rough.
# Experiment: VP16 counterscreen qHTS for inhibitors of ROR gamma transcriptional activity;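 note: Gal4-VP16 expression switched on by copper sulfate through the metallothionein promoter; nearly all actives have a fitted effect of over 50% in size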
# Details: Drosophila S2 Gal4-VP16 UAS-luciferase, luminescence, 20 h; activity, negative = inhibition: at 53.6 µM (top of the series)
# % is set by controls: 0 for no effect and ±100 for the full control effect; potency is the fitted concentration of half-maximal effect; tags give direction and shape of the fitted curve.
SMILES,Potency,"activity, negative = inhibition"
NNC(=O)c1[nH]c(-c2ccccc2)cc1-c1ccccc1,"inconclusive [inhibitor, single point]",
O=C(NCCN1CCOCC1)c1cn(-c2ccccc2)nc1-c1cccs1,,inactive: 4.49%
COc1cc(/C=N/Nc2ncnc3sc4c(c23)CCC4)ccc1O,"inconclusive [inhibitor, partial curve, poor fit]",
O=C(O)c1ccc(N[C@@H]2OC[C@@H](O)[C@@H](O)[C@@H]2O)cc1,,inactive: -2.18%
C/C(Cl)=C\Cn1c(=O)c2c(nc3n2CCS3)n(C)c1=O,,inactive: -3.09%
Cc1ccc(-c2[nH]c(-c3ccc(Cl)cc3)nc2SCC(=O)NCC2CCCO2)cc1 (stereo not given),"inconclusive [inhibitor, single point]",
CSc1ncccc1C(=O)NC1CC(C)(C)Cc2c1cnn2-c1ccccc1C (stereo not given),"inconclusive [inhibitor, single point]",
CCOC(=O)N1CCN(Cc2c(F)cccc2F)CC1,,inactive: 2.34%
Clc1ccc2nsnc2c1NC1=NCCN1,"inconclusive [activator, single point]",
Cc1ccc(/C=C/C(=O)O)cc1S(=O)(=O)N1CCCCC1,,inactive: 1.84%
O=C(O)COc1ccccc1/C=N/NC(=O)c1ccc2c(c1)OCCO2,"inconclusive [inhibitor, single point]",
COc1ccc(-c2c(O)c3cc(O)cc(O)c3oc2=O)cc1,"inconclusive [inhibitor, single point]",
C=CCN1CC(O)=C(c2nc3ccccc3[nH]2)C1=N,"inconclusive [inhibitor, single point]",
COc1ccc(C(=O)Cn2ccsc2=NC(C)=O)cc1,"inconclusive [activator, partial curve, poor fit]",
CCCCNC(=O)Oc1cc(CCl)on1,,inactive: -3.77%
COc1ccc(NS(=O)(=O)c2ccc3nc(COc4ccc(C#N)cc4)[nH]c3c2)cc1,"inconclusive [inhibitor, single point]",
N#C/C(=N\Nc1ccc([N+](=O)[O-])cc1)C(N)=S,active: 12.6 µM,
O=C(Oc1cccc([N+](=O)[O-])c1)N1CCCCC1,,inactive: 3.67%
O=C(NCC1CCCO1)c1ccccc1 (stereo not given),,inactive: 0.798%
COCCn1c(SCCN2CCOCC2)nc2c1c(=O)[nH]c(=O)n2C,,inactive: -3.81%
Cc1nc2cc(N3CCN(C)CC3)c(NC(=O)Cc3ccccc3)cc2c(=O)n1Cc1ccccc1,"inconclusive [inhibitor, full curve]",
CC(C)N1CCN(c2ccc(C(=O)c3c(-c4ccc(O)cc4)sc4cc(O)ccc34)cc2)CC1,"inconclusive [inhibitor, single point]",
S=C(Nc1ccccc1)c1nc2ccccc2s1,active: 0.708 µM,

SMILES,Potency,"activity, negative = inhibition"
CC(=O)Oc1ccc(N2C(=O)c3cccc4c([N+](=O)[O-])ccc(c34)C2=O)cc1,"inconclusive [inhibitor, single point]",
O=C(c1ccncc1)c1ccc(N2CCN(C3CC(=O)N(Cc4cccs4)C3=O)CC2)cc1 (stereo not given),"inconclusive [inhibitor, single point]",
O=C(Nc1ccc(Cl)cc1)/C(=C/c1cccc(O)c1)c1nc2ccccc2s1,active: 20 µM,
Cn1c(=S)c2[nH]c(SCCN3CCCC3)nc2n(C)c1=O,"inconclusive [inhibitor, single point]",
C[C@@H]1CN(C(=O)c2ccc(OC3CCN(S(=O)(=O)N(C)C)CC3)cc2)C[C@H](C)O1,,inactive: 3.33%
COc1ccc(S(=O)(=O)Nc2cc([N+](=O)[O-])ccc2OC)cc1,,inactive: -15.6%
Cc1noc(C)c1COc1ccc(C(=O)Nc2ccccn2)cc1,"inconclusive [activator, partial curve]",
COc1ccc(/C=N/Nc2nc3ccccc3s2)cc1O,"inconclusive [inhibitor, single point]",
O=C(Cn1c2ccccc2c(=O)c2ccccc21)N/N=C/c1ccc(N2CCCC2)c([N+](=O)[O-])c1,"inconclusive [inhibitor, partial curve, poor fit]",
CC1CN(C(=S)NC(=O)c2ccco2)CC(C)O1 (stereo not given),active: 20 µM,
COC(=O)c1cc(C(=O)OC)cc(-n2c(C)cc(C(=O)COC(=O)CNS(=O)(=O)c3ccc(C)cc3)c2C)c1,"inconclusive [inhibitor, single point]",
CNC(=S)N1CCN(c2nc(-c3ccc(Cl)cc3)cs2)CC1,"inconclusive [inhibitor, single point]",
COc1ccc(-c2nnc3n(CCc4ccccc4)c(=O)c4ccccc4n23)cc1OC,"inconclusive [inhibitor, partial curve, poor fit]",
CCn1c(=O)c(C(=O)NCc2ccc(F)cc2)c(O)c2ccccc21,"inconclusive [inhibitor, single point]",
Cc1cc(C)n(-c2nnc(NC34CC5CC(CC(C5)C3)C4)nn2)n1,"inconclusive [inhibitor, single point]",
COC(=O)c1ccc(CO/N=C/c2ccc(OC)cc2OC)cc1,"inconclusive [inhibitor, partial curve, poor fit]",
O=S(=O)(Nc1cccc2cccnc12)c1ccc(S(=O)(=O)N2CCCC2)cc1,active: 5.01 µM,
CCN(C(=O)CCN1C(=O)S/C(=C\c2ccccc2)C1=O)C1CCS(=O)(=O)C1 (stereo not given),"inconclusive [inhibitor, single point]",
CN(C)c1ccc(-c2nc(NC3CCNCC3)c3ccccc3n2)cc1,,inactive: -2.94%
COc1cc2c(cc1NC(=O)COC(=O)[C@@H](NS(=O)(=O)c1cccc(Cl)c1)C(C)C)oc1ccccc12,active: 11.2 µM,
O=C1/C(=C/c2cccc3ccccc23)CCCc2ccccc21,"inconclusive [activator, single point]",
CCCOC(=O)c1c(NC(=O)CSc2nc(-c3ccco3)cc(C(F)(F)F)n2)sc(C(=O)OC)c1C,"inconclusive [inhibitor, single point]",
